Results published in PubChem BioAssay AID493208 (National Center for Advancing Translational Sciences (NCATS), 2011).
The campaign covered roughly 44,000 compounds. About 340 (0.77%) were called active. Inconclusive results (about 5%) are left out. Calls follow the shape of the dose curve; as a rule, active = well fitted inhibition curve with a large enough effect; inconclusive = small, poorly fitted or top-dose-only effect; inactive = flat fitted curve, though single readings scatter. Some of the results follow.

test: Acumen qHTS Assay for Inhibitors of the mTORC1 Signaling Pathway in MEF (Tsc2-/-, p53-/-) Cells: Sytravon; details: phospho-rpS6 immunofluorescence/PI, 24 h; series mostly up to 38.3 µM; activity change, negative = inhibition: at the top concentration;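 also: plate controls were DMSO for no effect and rapamycin for full effect; nearly all actives have a fitted effect of over 50% in size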
Outline: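 Plate MEFs (Tsc2-/-, p53-/-, empty vector) in DMEM/10% FBS; after 24 h add compound, incubate 24 h at 37 degree Celsius; fix in PFA/TX-100, block, stain phospho-rpS6 and 10 uM PI; scan at 488 nm; report % positive cells.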

Structure (SMILES) | activity change, negative = inhibition
COc1ccccc1CNS(=O)(=O)c1c(C)nc2sccn2c1=O | inactive: 0.0604%
CCN(Cc1ccccc1)C(=O)CCNS(=O)(=O)c1ccc2c(c1)CC(C)N2C(C)=O (configuration not stated) | inactive: -3.48%
Cc1ccc(S(=O)(=O)c2cn(Cc3ccccc3)c3cc(N4CCCC4)c(F)cc3c2=O)cc1C | inactive: -12.4%
COc1cccc(CNC(=O)CCc2c(C)c3cc4c(C)c(C)oc4cc3oc2=O)c1 | inactive: 2.61%
CCOC(=O)c1ccccc1NS(=O)(=O)c1c(-c2ccc(C)cc2)csc1C(=O)OC | inactive: -4.97%
CC(C)(C)C(=O)Nc1ccc2nc(SCC(=O)N3CCCC3)sc2c1 | inactive: -4.92%
O=C(Nc1ccc(NC(=O)c2cccs2)cc1)c1ccc(Br)cc1 | inactive: 10.2%
O=C(OCc1ccccc1Cl)c1ccc(-c2nnn(Cc3ccccc3)n2)cc1 | inactive: 4.82%
CC(C)Oc1ccc(CNC(=O)c2ccc(NC(=O)c3nsc4ccccc34)cc2)cc1 | inactive: -1.44%
CCN(CCCNC(=O)c1cc2cc3cc(C)ccc3nc2s1)c1cccc(C)c1 | inactive: -0.0481%
COc1ccc(/C=C(/C#N)c2nc(-c3ccc(-c4ccccc4)cc3)cs2)cc1 | inactive: -15.2%
Cc1ccc(C)c(NC(=O)C(=O)NCCc2csc(-c3ccc(C(F)(F)F)cc3)n2)c1 | inactive: -1.41%
CCOC(=O)Cn1c(=O)cc(-c2ccccc2)c2c(C)nn(C)c21 | inactive: 1.42%
CCC(C)NC(=O)Cn1c(=O)n(-c2ccc(C)cc2)c(=O)c2ccccc21 (configuration not stated) | inactive: -4.65%
CCc1ccccc1N(CC)C(=O)c1cc2c(s1)-c1ccccc1OC2 | inactive: -5.06%
CCc1ccc(-n2nc(CO)c(C(=O)NCc3ccccn3)n2)cc1 | inactive: -3.3%
COc1ccc(OC)c(CCNC(=O)c2ccc(CS(=O)Cc3cccc(Cl)c3)o2)c1 (configuration not stated) | inactive: 1.41%
Cc1ccccc1CSc1nc2nc(C)c(Cc3ccccc3)c(C)n2n1 | inactive: 5.38%
Cc1nc(-c2ccccc2)sc1-c1ccc(SCC(=O)Nc2ccc(F)cc2F)nn1 | inactive: 1.52%
Cc1oc2ncnc(N3CCCCC3)c2c1C(=O)NCC1CCN(Cc2ccc(F)cc2)CC1 | inactive: -4.5%
COc1ccc(-n2ncc(C(=O)N3CCN(c4ccccn4)CC3)c2C2CCN(C(=O)OC(C)(C)C)CC2)cc1 | inactive: -7.66%
CCC(CC)c1nn2c(=O)cc(COc3ccc(NC(=O)c4ccc(Cl)cc4)cc3)nc2s1 | inactive: -1.3%
COCCNc1nc(NCc2ccccc2OC)c2cnn(C)c2n1 | inactive: 5.63%
CC(Sc1oc(-c2ccco2)nc1S(=O)(=O)c1ccc(Br)cc1)c1ccccc1 (configuration not stated) | inactive: -16.2%
CCCCNc1nc(Oc2ccc(=O)n(-c3ccccc3)n2)nc(N(C)C)n1 | inactive: 1.51%
CN(C(=O)c1nn(C)c2c1COc1ccccc1-2)c1cccc(C(F)(F)F)c1 | inactive: 0.676%
COc1ccc(N2CCN(CCCNC(=O)c3cnn(-c4ccc(F)cc4)c3-n3cccc3)CC2)cc1 | inactive: 0.895%
